For 42 sequences, binding signal results are on record in PMC7819943, “Rice protein-binding microarrays: a tool to detect cis-acting elements near promoter regions in rice”.

The other results are listed elsewhere or left out.

For this experiment, the target named is T1, OsWOX13 (Oryza sativa, UniProt Q5QMM3 1-267).
T1 sequence: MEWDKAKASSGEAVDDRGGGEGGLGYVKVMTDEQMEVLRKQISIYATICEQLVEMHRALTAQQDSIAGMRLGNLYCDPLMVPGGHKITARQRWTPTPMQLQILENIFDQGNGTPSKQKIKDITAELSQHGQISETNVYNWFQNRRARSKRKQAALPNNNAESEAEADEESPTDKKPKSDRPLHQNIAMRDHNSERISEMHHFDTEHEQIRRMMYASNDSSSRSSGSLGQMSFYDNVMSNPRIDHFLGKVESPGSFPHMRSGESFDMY
Briefly: protein-binding microarray (RPBM); PBS, 2% BSA, 51.3 ng/ul salmon testes DNA, 50 uM zinc acetate, 200 nM TF, 25 C, 1 h; high values mean tight binding. As to conditions: protein: recombinant; tags: N-terminal polyhistidine and DsRed monomer fusion (pET32a); label: CyDye5-dUTP incorporated in the synthesized complementary strand; 3' TTTTT single-stranded linker to array surface; dsDNA, one strand shown. A digest of the protocol:
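Ni–NTA purification followed expression in E. coli BL21-CodonPlus of transcription factors fused N-terminally to a polyhistidine tag and DsRed. At 200 nM in PBS with 2% BSA, salmon testes DNA and 50 µM zinc acetate, the protein was incubated for 1 h at 25 °C with a custom Agilent array that had been primer-extended with Cy5-dUTP and blocked with 2% BSA. After washing, the array was read on an Axon 4000B scanner. The binding signal is per-feature fluorescence intensity in arbitrary units.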
For the sequence “TGATAATAATTATTTCTTGGTCTGTGGGTTAGGGATGGTTCGGAGTCACCTAGTGCAG”, the binding signal is 18500 fluorescence intensity (a.u.).

“TGAGATAAATAGCATTAAATTAAAGTATGAAATAGTGGTGCGGAGTCACCTAGTGCAG”: the binding signal is 4470 fluorescence intensity (a.u.). Take “TATAATTTTATTTGCGATGTCAATACATGTAGTGGGTTGGCGGAGTCACCTAGTGCAG”: the binding signal was 12900 fluorescence intensity (a.u.).

Take “TGGTCAGATAGCTAGATTGATATCCCTCTCTCTCTCTCACCGGAGTCACCTAGTGCAG”: the binding signal was 13900 fluorescence intensity (a.u.). With “GAAATAATTAATTAATTTAATTAATTGATTGACACAAGTACGGAGTCACCTAGTGCAG”, the binding signal was 65000 fluorescence intensity (a.u.).

Consider “GACATCACTTCTGATTGGGATTAAGGTAATGAGCCCTATCCGGAGTCACCTAGTGCAG”, for which the binding signal was 10200 fluorescence intensity (a.u.).

With “ATGTCTGGTTATTTAAATTATTCTAGCTAACTTGATTATTCGGAGTCACCTAGTGCAG”, the binding signal was 4180 fluorescence intensity (a.u.). “AACATAATTGCTCCATGATTTGACAATATGGTGCTACATTCGGAGTCACCTAGTGCAG”: the binding signal was 21700 fluorescence intensity (a.u.). The figure for “AATAATATCTCTATAAATAGATAACTGAAGTAGCAACGCACGGAGTCACCTAGTGCAG” is 3410 fluorescence intensity (a.u.). Consider “CCATTTAGATTATTAATTATGTTTTGAAAATCTCTACTTACGGAGTCACCTAGTGCAG”, for which the binding signal is 20100 fluorescence intensity (a.u.). The value for “GAGTTGAATGATGGCTGACTGGCTGTCTGATTTATGGTTTCGGAGTCACCTAGTGCAG” was 20800 fluorescence intensity (a.u.). The figure for “GTAAATAAATTAATTTACTCCAACAGGTAGTATTTACTATCGGAGTCACCTAGTGCAG” is 28100 fluorescence intensity (a.u.). As to “TTGTTGTGATTAAGACCATCTAATCCATCTGATCAGCGAGCGGAGTCACCTAGTGCAG”, the binding signal is 11000 fluorescence intensity (a.u.). Regarding “TATCAAAGTTAAACTGTTTTAAATTTAACTAAGTTTAAAGCGGAGTCACCTAGTGCAG”, the binding signal was 4610 fluorescence intensity (a.u.).

On to “AAATTTGACAGATGTAATTATGGTACAATCGTAGTGTAATCGGAGTCACCTAGTGCAG”, for which the binding signal is 35400 fluorescence intensity (a.u.).

“CTGGGATTGGCTTAAGAGTCTTTGTTTTCCTTTTGCTGCTCGGAGTCACCTAGTGCAG”: the binding signal was 30200 fluorescence intensity (a.u.). Regarding “TTCAAATTTTCTATCACGATACACATAATATTATATTGATCGGAGTCACCTAGTGCAG”, the binding signal was 15300 fluorescence intensity (a.u.). For the sequence “GAAAATAATTGAATGCAGGATATGCAATTTTGATGCTAGACGGAGTCACCTAGTGCAG”, the binding signal was 18800 fluorescence intensity (a.u.). “TTAAATTTAGGCTTTAGTGTATTAGTGCAATCAATAGGCTCGGAGTCACCTAGTGCAG”: the binding signal was 4370 fluorescence intensity (a.u.). Take “TGTAAGTTTGATTGAAATTAGAACGATGTGACGGATAAGTCGGAGTCACCTAGTGCAG”: the binding signal was 33700 fluorescence intensity (a.u.).

As for “CAAAAGGCAATTAGTAGACGACTAACTAACTAGTTTCTCCCGGAGTCACCTAGTGCAG”, the binding signal is 10500 fluorescence intensity (a.u.). Turning to “TCTGGTCAATCACCCTGCCAAACTTTCAGTCAGAGAGACACGGAGTCACCTAGTGCAG”, the binding signal is 14600 fluorescence intensity (a.u.). With “ATTTCGCTACCAATCAGCTGCTTATCATAATTTTAAACTACGGAGTCACCTAGTGCAG”, the binding signal was 11000 fluorescence intensity (a.u.).

With “GATGATGTGACTGAAAAGTTGTATGTGTATGACATATTGACGGAGTCACCTAGTGCAG”, the binding signal was 11500 fluorescence intensity (a.u.). As to “CGTGTACGGCTCTGATTGGACCGCCCTACCACGAGTCAGACGGAGTCACCTAGTGCAG”, the binding signal was 7280 fluorescence intensity (a.u.). For the sequence “AATAATTGCACAAATATTGCAGGTGTATTTTATCAGCATACGGAGTCACCTAGTGCAG”, the binding signal was 31800 fluorescence intensity (a.u.).

Take “TGGAAATTACCATTTGCCTACTCCCATCGTGTCACCAGAACGGAGTCACCTAGTGCAG”: the binding signal was 4180 fluorescence intensity (a.u.).

With “ATAAATTAATGGTAATATATTATTTTACGCACATGCAAATCGGAGTCACCTAGTGCAG”, the binding signal is 30600 fluorescence intensity (a.u.).

In the case of “TGCTTCATTGCATGGATTGATAAAACACATGCTTAATATTCGGAGTCACCTAGTGCAG”, the binding signal was 3380 fluorescence intensity (a.u.).

For the sequence “CATTATAATTGAAACCACTGGTAAGAAACTTAGGTTATTGCGGAGTCACCTAGTGCAG”, the binding signal is 19900 fluorescence intensity (a.u.). The value for “GAACAAATTTTGAATGTCACGATTTGGGACGGAGGGGAGTCGGAGTCACCTAGTGCAG” was 4580 fluorescence intensity (a.u.); that for “TGTGATTTAGGGATTTAGAAGCTGCGTGGCTGTTCTGTAACGGAGTCACCTAGTGCAG” was 7660 fluorescence intensity (a.u.). As to “TTTAATGAATGAAACTAACTTACTGTCGTAGATATTACTACGGAGTCACCTAGTGCAG”, the binding signal was 3270 fluorescence intensity (a.u.). In the case of “GTGAATTAATTGGGCCCACACCTTTTCATGCACCCCTTGCCGGAGTCACCTAGTGCAG”, the binding signal is 31300 fluorescence intensity (a.u.). The figure for “ATCAGATGAGAAATTGCCGTTGATTAATCCGGAGACGAACCGGAGTCACCTAGTGCAG” is 12800 fluorescence intensity (a.u.). For “TACTATACGTTAATTGTACACAACGCTCCTAGCAGTTACTCGGAGTCACCTAGTGCAG”, the binding signal was 4030 fluorescence intensity (a.u.). Consider “ATTAATTCAACATAATAAAATCACATCATATGAAATATCCCGGAGTCACCTAGTGCAG”, for which the binding signal was 3250 fluorescence intensity (a.u.). Turning to “ACCTGAAGAGTATAAATTGACTCCTGGTAGTTTTGCCATTCGGAGTCACCTAGTGCAG”, the binding signal is 6210 fluorescence intensity (a.u.). For “ATCTTAAATAAATAAATAGTAATTACATGATATTTTGAATCGGAGTCACCTAGTGCAG”, the binding signal is 5840 fluorescence intensity (a.u.). Regarding “GATGATTTCGTGACGAAGCAGCTACCTCACAATGTGACATCGGAGTCACCTAGTGCAG”, the binding signal was 12900 fluorescence intensity (a.u.).

Regarding “TCTGATAATTTATAAATGTAAGGAGGGTAAAATTAAACCACGGAGTCACCTAGTGCAG”, the binding signal was 14700 fluorescence intensity (a.u.). On to “AACCTAAGCCTAATTAATTAGTCCAGGTTGGTTTTCATGGCGGAGTCACCTAGTGCAG”, for which the binding signal was 11300 fluorescence intensity (a.u.).
